{"source": "paper PMC12820563", "note": "Some of the results follow. The list includes weakly bound sequences.", "data": [{"target": "T1, MBP-FoxP3dN (UniProt Q99JB6)", "T1 sequence": "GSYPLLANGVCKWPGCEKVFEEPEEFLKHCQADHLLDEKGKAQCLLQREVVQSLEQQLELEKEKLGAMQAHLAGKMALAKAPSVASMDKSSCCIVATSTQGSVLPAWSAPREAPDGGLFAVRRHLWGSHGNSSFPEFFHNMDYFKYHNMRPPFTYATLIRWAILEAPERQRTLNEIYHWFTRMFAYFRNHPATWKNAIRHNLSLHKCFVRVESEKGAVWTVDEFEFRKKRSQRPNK", "experiment": "PD-seq (MBP pull-down with sequencing)", "conditions": "20 mM Tris-HCl pH 7.5, 100 mM NaCl, 1.5 mM MgCl2, 0.4 uM protein, 0.1 uM dsDNA library, 30 min, room temperature, amylose pull-down; high values mean tight binding; double strand, one strand shown", "values": [{"sequence": "GATGATTGTTCTCCCAGCTGATGAATTCCATTGTTCGAGTAAACAAATTTTCCTAATCTTTCTGTTCAAGCGCCATCTAC", "binding signal (RPM ratio (pull-down/input))": 1.42}, {"sequence": "GATGATTGTTCTCCCAGCTGATGAATTATCGCCGTCGAGTAAACAAATTTTCCTAATCTTTCTGTTCAAGCGCCATCTAC", "binding signal (RPM ratio (pull-down/input))": 0.64}, {"sequence": "GATGATTGTTCTCCCAGCTGATGAATTCCGCTTGTCGAGTAAACAAATTTTCCTAATCTTTCTGTTCAAGCGCCATCTAC", "binding signal (RPM ratio (pull-down/input))": 3.68}, {"sequence": "GATGATTGTTCTCCCAGCTGATGAATTGCACATGTCGAGTAAACAAATTTTCCTAATCTTTCTGTTCAAGCGCCATCTAC", "binding signal (RPM ratio (pull-down/input))": 1.13}, {"sequence": "GATGATTGTTCTCCCAGCTGATGAATTGATGATATCGAGTAAACAAATTTTCCTAATCTTTCTGTTCAAGCGCCATCTAC", "binding signal (RPM ratio (pull-down/input))": 0.737}, {"sequence": "GATGATTGTTCTCCCAGCTGATGAATTCAGATGTTCGAGTAAACAAATTTTCCTAATCTTTCTGTTCAAGCGCCATCTAC", "binding signal (RPM ratio (pull-down/input))": 1.06}, {"sequence": "GATGATTGTTCTCCCAGCTGATGAATTCAGGCATTCGAGTAAACAAATTTTCCTAATCTTTCTGTTCAAGCGCCATCTAC", "binding signal (RPM ratio (pull-down/input))": 4.03}, {"sequence": "GATGATTGTTCTCCCAGCTGATGAATTTTGCTCGTCGAGTAAACAAATTTTCCTAATCTTTCTGTTCAAGCGCCATCTAC", "binding signal (RPM ratio (pull-down/input))": 0.732}, {"sequence": "GATGATTGTTCTCCCAGCTGATGAATTCCGCTAGTCGAGTAAACAAATTTTCCTAATCTTTCTGTTCAAGCGCCATCTAC", "binding signal (RPM ratio (pull-down/input))": 1.45}, {"sequence": "GATGATTGTTCTCCCAGCTGATGAATTGCGATACTCGAGTAAACAAATTTTCCTAATCTTTCTGTTCAAGCGCCATCTAC", "binding signal (RPM ratio (pull-down/input))": 1.26}, {"sequence": "GATGATTGTTCTCCCAGCTGATGAATTACGTTGATCGAGTAAACAAATTTTCCTAATCTTTCTGTTCAAGCGCCATCTAC", "binding signal (RPM ratio (pull-down/input))": 1.44}, {"sequence": "GATGATTGTTCTCCCAGCTGATGAATTCCAACGATCGAGTAAACAAATTTTCCTAATCTTTCTGTTCAAGCGCCATCTAC", "binding signal (RPM ratio (pull-down/input))": 0.313}, {"sequence": "GATGATTGTTCTCCCAGCTGATGAATTGCCTACTTCGAGTAAACAAATTTTCCTAATCTTTCTGTTCAAGCGCCATCTAC", "binding signal (RPM ratio (pull-down/input))": 0.561}, {"sequence": "GATGATTGTTCTCCCAGCTGATGAATTTACCCTCTCGAGTAAACAAATTTTCCTAATCTTTCTGTTCAAGCGCCATCTAC", "binding signal (RPM ratio (pull-down/input))": 0.461}, {"sequence": "GATGATTGTTCTCCCAGCTGATGAATTAAAGGGATCGAGTAAACAAATTTTCCTAATCTTTCTGTTCAAGCGCCATCTAC", "binding signal (RPM ratio (pull-down/input))": 0.259}, {"sequence": "GATGATTGTTCTCCCAGCTGATGAATTCATACCGTCGAGTAAACAAATTTTCCTAATCTTTCTGTTCAAGCGCCATCTAC", "binding signal (RPM ratio (pull-down/input))": 0.396}, {"sequence": "GATGATTGTTCTCCCAGCTGATGAATTATCCGAATCGAGTAAACAAATTTTCCTAATCTTTCTGTTCAAGCGCCATCTAC", "binding signal (RPM ratio (pull-down/input))": 0.207}, {"sequence": "GATGATTGTTCTCCCAGCTGATGAATTTGACGGATCGAGTAAACAAATTTTCCTAATCTTTCTGTTCAAGCGCCATCTAC", "binding signal (RPM ratio (pull-down/input))": 0.251}, {"sequence": "GATGATTGTTCTCCCAGCTGATGAATTACGGCTCTCGAGTAAACAAATTTTCCTAATCTTTCTGTTCAAGCGCCATCTAC", "binding signal (RPM ratio (pull-down/input))": 0.506}, {"sequence": "GATGATTGTTCTCCCAGCTGATGAATTCTTAAGTTCGAGTAAACAAATTTTCCTAATCTTTCTGTTCAAGCGCCATCTAC", "binding signal (RPM ratio (pull-down/input))": 0.237}, {"sequence": "GATGATTGTTCTCCCAGCTGATGAATTAACCATATCGAGTAAACAAATTTTCCTAATCTTTCTGTTCAAGCGCCATCTAC", "binding signal (RPM ratio (pull-down/input))": 0.414}, {"sequence": "GATGATTGTTCTCCCAGCTGATGAATTTATCGTATCGAGTAAACAAATTTTCCTAATCTTTCTGTTCAAGCGCCATCTAC", "binding signal (RPM ratio (pull-down/input))": 1.92}, {"sequence": "GATGATTGTTCTCCCAGCTGATGAATTTTAAGGCTCGAGTAAACAAATTTTCCTAATCTTTCTGTTCAAGCGCCATCTAC", "binding signal (RPM ratio (pull-down/input))": 0.29}, {"sequence": "GATGATTGTTCTCCCAGCTGATGAATTATTGCAATCGAGTAAACAAATTTTCCTAATCTTTCTGTTCAAGCGCCATCTAC", "binding signal (RPM ratio (pull-down/input))": 4.25}, {"sequence": "GATGATTGTTCTCCCAGCTGATGAATTATCGCGTTCGAGTAAACAAATTTTCCTAATCTTTCTGTTCAAGCGCCATCTAC", "binding signal (RPM ratio (pull-down/input))": 1.37}, {"sequence": "GATGATTGTTCTCCCAGCTGATGAATTGTTGTTCTCGAGTAAACAAATTTTCCTAATCTTTCTGTTCAAGCGCCATCTAC", "binding signal (RPM ratio (pull-down/input))": 7.17}, {"sequence": "GATGATTGTTCTCCCAGCTGATGAATTTCGTCTGTCGAGTAAACAAATTTTCCTAATCTTTCTGTTCAAGCGCCATCTAC", "binding signal (RPM ratio (pull-down/input))": 0.577}, {"sequence": "GATGATTGTTCTCCCAGCTGATGAATTTGCGGCTTCGAGTAAACAAATTTTCCTAATCTTTCTGTTCAAGCGCCATCTAC", "binding signal (RPM ratio (pull-down/input))": 0.833}, {"sequence": "GATGATTGTTCTCCCAGCTGATGAATTAGGTTTTTCGAGTAAACAAATTTTCCTAATCTTTCTGTTCAAGCGCCATCTAC", "binding signal (RPM ratio (pull-down/input))": 1.51}, {"sequence": "GATGATTGTTCTCCCAGCTGATGAATTGCAATTCTCGAGTAAACAAATTTTCCTAATCTTTCTGTTCAAGCGCCATCTAC", "binding signal (RPM ratio (pull-down/input))": 1.76}, {"sequence": "GATGATTGTTCTCCCAGCTGATGAATTCGATCAGTCGAGTAAACAAATTTTCCTAATCTTTCTGTTCAAGCGCCATCTAC", "binding signal (RPM ratio (pull-down/input))": 0.29}, {"sequence": "GATGATTGTTCTCCCAGCTGATGAATTTGACTACTCGAGTAAACAAATTTTCCTAATCTTTCTGTTCAAGCGCCATCTAC", "binding signal (RPM ratio (pull-down/input))": 0.767}]}]}
